The other results are listed elsewhere or left out.
Assays:
Assay in all cases: glycan array binding signal (z-score within array); higher = stronger binding
Conditions in all cases: glycan notation: IUPAC condensed, linker removed
[1] = target: Fuc(a1-2)[Gal(a1-3)]Gal(b1-4)GlcNAc(b1-2)Man
Method in brief: (§1)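 From the Consortium for Functional Glycomics database, 3228 arrays were curated, keeping only those whose protein sequence was available. Binding is given as a within-array Z-score averaged across arrays sharing a protein sequence and across linkers. Negative Z-scores can be read as non-binding.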

[2] = target: Fuc(a1-2)[Gal(a1-3)]Gal(b1-4)GlcNAc(b1-2)Man(a1-3)[Fuc(a1-2)[Gal(a1-3)]Gal(b1-4)GlcNAc(b1-2)Man(a1-6)]Man(b1-4)GlcNAc(b1-4)GlcNAc
Method in brief: as §1

[3] = target: Fuc(a1-2)[Gal(a1-3)]Gal(b1-4)GlcNAc(b1-2)Man(a1-3)[Fuc(a1-2)[Gal(a1-3)]Gal(b1-4)GlcNAc(b1-2)Man(a1-6)]Man(b1-4)GlcNAc(b1-4)[Fuc(a1-6)]GlcNAc
Method in brief: as §1

[4] = target: Fuc(a1-2)[Gal(a1-3)]Gal(b1-4)GlcNAc(b1-3)GalNAc
Method in brief: as §1

[5] = target: Fuc(a1-2)[Gal(a1-3)]Gal(b1-4)GlcNAc(b1-3)[Fuc(a1-2)[Gal(a1-3)]Gal(b1-4)GlcNAc(b1-6)]GalNAc
Method in brief: as §1

[6] = target: Fuc(a1-2)[Gal(a1-3)]Gal(b1-4)GlcNAc(b1-6)GalNAc
Method in brief: as §1

[7] = target: Fuc(a1-2)[Gal(a1-3)]Gal(b1-4)[Fuc(a1-3)]Glc
Method in brief: as §1

[8] = target: Fuc(a1-2)[Gal(a1-3)]Gal(b1-4)[Fuc(a1-3)]GlcNAc
Method in brief: as §1

[9] = target: Fuc(a1-2)[Gal(a1-3)]Gal(b1-4)[Fuc(a1-3)]GlcNAc(b1-3)GalNAc
Method in brief: as §1

[10] = target: Fuc(a1-2)[Gal(a1-4)]Gal(b1-4)GlcNAc
Method in brief: as §1

[11] = target: Fuc(a1-2)[GalNAc(a1-3)]Gal
Method in brief: as §1

[12] = target: Fuc(a1-2)[GalNAc(a1-3)]Gal(b1-3)GalNAc(a1-3)[Fuc(a1-2)]Gal(b1-4)GlcNAc
Method in brief: as §1

[13] = target: Fuc(a1-2)[GalNAc(a1-3)]Gal(b1-3)GalNAc(b1-3)Gal(a1-4)Gal(b1-4)Glc
Method in brief: as §1

[14] = target: Fuc(a1-2)[GalNAc(a1-3)]Gal(b1-3)GlcNAc
Method in brief: as §1

[15] = target: Fuc(a1-2)[GalNAc(a1-3)]Gal(b1-3)GlcNAc(b1-2)Man(a1-3)[Fuc(a1-2)[GalNAc(a1-3)]Gal(b1-3)GlcNAc(b1-2)Man(a1-6)]Man(b1-4)GlcNAc(b1-4)GlcNAc
Method in brief: as §1

[16] = target: Fuc(a1-2)[GalNAc(a1-3)]Gal(b1-3)GlcNAc(b1-2)Man(a1-3)[Fuc(a1-2)[GalNAc(a1-3)]Gal(b1-3)GlcNAc(b1-2)Man(a1-6)]Man(b1-4)GlcNAc(b1-4)[Fuc(a1-6)]GlcNAc
Method in brief: as §1

[17] = target: Fuc(a1-2)[GalNAc(a1-3)]Gal(b1-3)GlcNAc(b1-3)GalNAc
Method in brief: as §1

[18] = target: Fuc(a1-2)[GalNAc(a1-3)]Gal(b1-3)GlcNAc(b1-6)GalNAc
Method in brief: as §1

[19] = target: Fuc(a1-2)[GalNAc(a1-3)]Gal(b1-4)Glc
Method in brief: as §1

[20] = target: Fuc(a1-2)[GalNAc(a1-3)]Gal(b1-4)GlcNAc
Method in brief: as §1

[21] = target: Fuc(a1-2)[GalNAc(a1-3)]Gal(b1-4)GlcNAc(b1-2)Man
Method in brief: as §1

[22] = target: Fuc(a1-2)[GalNAc(a1-3)]Gal(b1-4)GlcNAc(b1-2)Man(a1-3)[Fuc(a1-2)[GalNAc(a1-3)]Gal(b1-4)GlcNAc(b1-2)Man(a1-6)]Man(b1-4)GlcNAc(b1-4)GlcNAc
Method in brief: as §1

[23] = target: Fuc(a1-2)[GalNAc(a1-3)]Gal(b1-4)GlcNAc(b1-2)Man(a1-3)[Fuc(a1-2)[GalNAc(a1-3)]Gal(b1-4)GlcNAc(b1-2)Man(a1-6)]Man(b1-4)GlcNAc(b1-4)[Fuc(a1-6)]GlcNAc
Method in brief: as §1

[24] = target: Fuc(a1-2)[GalNAc(a1-3)]Gal(b1-4)GlcNAc(b1-3)Gal(b1-4)GlcNAc
Method in brief: as §1

[25] = target: Fuc(a1-2)[GalNAc(a1-3)]Gal(b1-4)GlcNAc(b1-3)Gal(b1-4)GlcNAc(b1-3)Gal(b1-4)GlcNAc
Method in brief: as §1

[26] = target: Fuc(a1-2)[GalNAc(a1-3)]Gal(b1-4)GlcNAc(b1-3)GalNAc
Method in brief: as §1

[27] = target: Fuc(a1-2)[GalNAc(a1-3)]Gal(b1-4)GlcNAc(b1-3)[Fuc(a1-2)[GalNAc(a1-3)]Gal(b1-4)GlcNAc(b1-6)]GalNAc
Method in brief: as §1

[28] = target: Fuc(a1-2)[GalNAc(a1-3)]Gal(b1-4)GlcNAc(b1-6)GalNAc
Method in brief: as §1

[29] = target: Fuc(a1-2)[GalNAc(a1-3)]Gal(b1-4)[Fuc(a1-3)]GlcNAc
Method in brief: as §1

[30] = target: Fuc(a1-2)[GalNAc(a1-3)]Gal(b1-4)[Fuc(a1-3)]GlcNAc(b1-3)GalNAc
Method in brief: as §1

[31] = target: Fuc(a1-2)[GalNAc(a1-4)]Gal(b1-4)GlcNAc
Method in brief: as §1

[32] = target: Fuc(a1-2)[GalNAc(b1-3)]Gal
Method in brief: as §1

Fuc(a1-3)GlcNAc = target: Fuc(a1-3)GlcNAc
Method in brief: as §1

[33] = target: Fuc(a1-3)[Gal(b1-4)]Glc6S
Method in brief: as §1

[34] = target: Fuc(a1-3)[Gal(b1-4)]GlcNAc
Method in brief: as §1

[35] = target: Fuc(a1-3)[Gal(b1-4)]GlcNAc(b1-2)Man
Method in brief: as §1

[36] = target: Fuc(a1-3)[Gal(b1-4)]GlcNAc(b1-2)Man(a1-3)[Fuc(a1-3)[Gal(b1-4)]GlcNAc(b1-2)Man(a1-6)]Man(b1-4)GlcNAc(b1-4)GlcNAc
Method in brief: as §1

[37] = target: Fuc(a1-3)[Gal(b1-4)]GlcNAc(b1-2)Man(a1-3)[Fuc(a1-3)[Gal(b1-4)]GlcNAc(b1-2)Man(a1-6)]Man(b1-4)GlcNAc(b1-4)[Fuc(a1-6)]GlcNAc
Method in brief: as §1

[38] = target: Fuc(a1-3)[Gal(b1-4)]GlcNAc(b1-3)Gal(b1-3)[Fuc(a1-4)]GlcNAc
Method in brief: as §1

[39] = target: Fuc(a1-3)[Gal(b1-4)]GlcNAc(b1-3)Gal(b1-4)[Fuc(a1-3)]GlcNAc
Method in brief: as §1

[40] = target: Fuc(a1-3)[Gal(b1-4)]GlcNAc(b1-3)Gal(b1-4)[Fuc(a1-3)]GlcNAc(b1-3)Gal(b1-4)[Fuc(a1-3)]GlcNAc
Method in brief: as §1

[41] = target: Fuc(a1-3)[Gal(b1-4)]GlcNAc(b1-3)GalNAc
Method in brief: as §1

[42] = target: Fuc(a1-3)[Gal(b1-4)]GlcNAc(b1-4)Gal(b1-4)[Fuc(a1-3)]GlcNAc
Method in brief: as §1

[43] = target: Fuc(a1-3)[Gal(b1-4)]GlcNAc(b1-4)Gal(b1-4)[Fuc(a1-3)]GlcNAc(b1-4)Gal(b1-4)[Fuc(a1-3)]GlcNAc
Method in brief: as §1

[44] = target: Fuc(a1-3)[Gal(b1-4)]GlcNAc(b1-6)GalNAc
Method in brief: as §1

[45] = target: Fuc(a1-3)[Gal(b1-4)]GlcNAc(b1-6)[Gal(b1-3)GlcNAc(b1-3)]Gal(b1-4)Glc
Method in brief: as §1

[46] = target: Fuc(a1-3)[Gal(b1-4)]GlcNAc6S
Method in brief: as §1

[47] = target: Fuc(a1-3)[Gal3S(b1-4)]Glc
Method in brief: as §1

[48] = target: Fuc(a1-3)[Gal3S(b1-4)]GlcNAc
Method in brief: as §1

[49] = target: Fuc(a1-3)[Gal3S(b1-4)]GlcNAc6S
Method in brief: as §1

[50] = target: Fuc(a1-3)[GalNAc(b1-4)]GlcNAc
Method in brief: as §1

[51] = target: Fuc(a1-3)[GalNAc(b1-4)]GlcNAc6S
Method in brief: as §1

Fuc(a1-4)GlcNAc = target: Fuc(a1-4)GlcNAc
Method in brief: as §1

Fuc(b1-3)GlcNAc = target: Fuc(b1-3)GlcNAc
Method in brief: as §1

Gal(a1-2)Gal = target: Gal(a1-2)Gal
Method in brief: as §1

Gal(a1-3)Gal = target: Gal(a1-3)Gal
Method in brief: as §1

Gal(a1-3)Gal(b1-3)GlcNAc = target: Gal(a1-3)Gal(b1-3)GlcNAc
Method in brief: as §1

[52] = target: Gal(a1-3)Gal(b1-3)GlcNAc(b1-2)Man
Method in brief: as §1

[53] = target: Gal(a1-3)Gal(b1-3)GlcNAc(b1-2)Man(a1-3)[Gal(a1-3)Gal(b1-3)GlcNAc(b1-2)Man(a1-6)]Man(b1-4)GlcNAc(b1-4)GlcNAc
Method in brief: as §1

[54] = target: Gal(a1-3)Gal(b1-3)GlcNAc(b1-3)GalNAc
Method in brief: as §1

B1: ABA (Agaricus bisporus), Q00022 (protein)
chain: MTYTISIRVYQTTPKGFFRPVERTNWKYANGGTWDEVRGEYVLTMGGSGTSGSLRFVSSDTDESFVATFGVHNYKRWCDIVTNLTNEQTALVINQEYYGVPIRDQARENQLTSYNVANAKGRRFAIEYTVTEGDNLKANLIIG
glycan array binding signal (z-score) [1]: -0.222
glycan array binding signal (z-score) [2]: -0.211
glycan array binding signal (z-score) [3]: -0.173
glycan array binding signal (z-score) [4]: -0.214
glycan array binding signal (z-score) [5]: -0.222
glycan array binding signal (z-score) [6]: -0.15
glycan array binding signal (z-score) [7]: -0.219
glycan array binding signal (z-score) [8]: -0.155
glycan array binding signal (z-score) [9]: -0.225
glycan array binding signal (z-score) [10]: -0.312
glycan array binding signal (z-score) [11]: -0.252
glycan array binding signal (z-score) [12]: -0.208
glycan array binding signal (z-score) [13]: -0.286
glycan array binding signal (z-score) [14]: -0.255
glycan array binding signal (z-score) [15]: -0.23
glycan array binding signal (z-score) [16]: -0.168
glycan array binding signal (z-score) [17]: -0.211
glycan array binding signal (z-score) [18]: -0.253
glycan array binding signal (z-score) [19]: -0.228
glycan array binding signal (z-score) [20]: -0.237
glycan array binding signal (z-score) [21]: -0.282
glycan array binding signal (z-score) [22]: -0.241
glycan array binding signal (z-score) [23]: -0.138
glycan array binding signal (z-score) [24]: -0.091
glycan array binding signal (z-score) [25]: 0.28
glycan array binding signal (z-score) [26]: -0.234
glycan array binding signal (z-score) [27]: -0.234
glycan array binding signal (z-score) [28]: -0.259
glycan array binding signal (z-score) [29]: 0.025
glycan array binding signal (z-score) [30]: -0.222
glycan array binding signal (z-score) [31]: -0.269
glycan array binding signal (z-score) [32]: -0.26
glycan array binding signal (z-score) (Fuc(a1-3)GlcNAc): -0.267
glycan array binding signal (z-score) [33]: -0.094
glycan array binding signal (z-score) [34]: -0.227
glycan array binding signal (z-score) [35]: -0.161
glycan array binding signal (z-score) [36]: -0.176
glycan array binding signal (z-score) [37]: -0.234
glycan array binding signal (z-score) [38]: -0.058
glycan array binding signal (z-score) [39]: -0.223
glycan array binding signal (z-score) [40]: -0.281
glycan array binding signal (z-score) [41]: -0.197
glycan array binding signal (z-score) [42]: -0.164
glycan array binding signal (z-score) [43]: -0.186
glycan array binding signal (z-score) [44]: -0.164
glycan array binding signal (z-score) [45]: -0.257
glycan array binding signal (z-score) [46]: -0.232
glycan array binding signal (z-score) [47]: -0.246
glycan array binding signal (z-score) [48]: 0.098
glycan array binding signal (z-score) [49]: -0.286
glycan array binding signal (z-score) [50]: -0.206
glycan array binding signal (z-score) [51]: -0.295
glycan array binding signal (z-score) (Fuc(a1-4)GlcNAc): -0.283
glycan array binding signal (z-score) (Fuc(b1-3)GlcNAc): -0.235
glycan array binding signal (z-score) (Gal(a1-2)Gal): -0.211
glycan array binding signal (z-score) (Gal(a1-3)Gal): -0.183
glycan array binding signal (z-score) (Gal(a1-3)Gal(b1-3)GlcNAc): -0.192
glycan array binding signal (z-score) [52]: -0.236
glycan array binding signal (z-score) [53]: -0.046
glycan array binding signal (z-score) [54]: -0.189
